Assay results taken from the supplement of paper PMC7826260.
This is one part of the list. Each Rep nickase domain was tested in vitro on the same pool of single strands (1 h at 37 °C, 3 µM enzyme); the outer parts of the 90-letter strands are left off. Uncut reads are compared with the no-enzyme pool on a log2 scale; strong cutting gives strongly negative numbers. There is no active / inactive call. Counts are relative to all reads; where an enzyme cuts many sequences, the uncut ones exceed 0.

Assays:
Assay in all cases: uncleaved DNA left, log2 of reads against the no-enzyme library (log2 ratio); higher = less cleavage (more negative = more Rep cleavage of the k-mer); sequences stand for … in CTCGTCCG…ACCGGAGA
[1] = system: T1, Rep nickase domain of Muscovy duck circovirus
T1 sequence (residues 1-111 of Rep, tag left off): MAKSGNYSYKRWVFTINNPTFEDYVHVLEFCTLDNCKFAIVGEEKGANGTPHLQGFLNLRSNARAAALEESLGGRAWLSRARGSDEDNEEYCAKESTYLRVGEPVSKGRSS
Experimental: (§1)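 A pool of 90-nt single-stranded DNAs with seven random bases just before the constant AC of the nick site (name = the seven bases) was cut by 3 µM recombinant His6-SUMO-tagged Rep nickase domain (300 nM DNA, 50 mM HEPES pH 8.0, 50 mM NaCl, 1 mM MnCl2, 1 h, 37 °C, three replicates). Uncut DNA was amplified and sequenced.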

[2] = system: T2, Rep nickase domain of banana bunchy top virus
T2 sequence (residues 1-94 of Rep, tag left off): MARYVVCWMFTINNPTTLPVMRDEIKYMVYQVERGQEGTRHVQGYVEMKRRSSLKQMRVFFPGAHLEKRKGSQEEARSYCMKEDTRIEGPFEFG
Experimental: as §1

[3] = system: T3, Rep nickase domain of cabbage leaf curl virus
T3 sequence (residues 1-116 of Rep, tag left off): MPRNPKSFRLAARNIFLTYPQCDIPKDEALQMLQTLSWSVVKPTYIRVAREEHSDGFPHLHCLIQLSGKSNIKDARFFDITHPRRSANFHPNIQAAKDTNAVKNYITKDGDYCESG
Experimental: as §1

[4] = system: T4, Rep nickase domain of chickpea chlorotic dwarf virus
T4 sequence (residues 1-124 of Rep, tag left off): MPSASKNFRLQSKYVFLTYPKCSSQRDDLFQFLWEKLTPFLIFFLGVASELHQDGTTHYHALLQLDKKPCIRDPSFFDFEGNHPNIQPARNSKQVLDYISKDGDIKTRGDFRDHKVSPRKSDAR
Experimental: as §1

[5] = system: T5, Rep nickase domain of faba bean necrotic yellows virus
T5 sequence (residues 1-98 of Rep, tag left off): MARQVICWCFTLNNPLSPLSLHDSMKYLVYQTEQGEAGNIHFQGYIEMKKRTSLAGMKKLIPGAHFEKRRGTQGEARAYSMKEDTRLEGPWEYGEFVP
Experimental: as §1

[6] = system: T6, Rep nickase domain of maize striate mosaic virus
T6 sequence (residues 1-117 of Rep, tag left off): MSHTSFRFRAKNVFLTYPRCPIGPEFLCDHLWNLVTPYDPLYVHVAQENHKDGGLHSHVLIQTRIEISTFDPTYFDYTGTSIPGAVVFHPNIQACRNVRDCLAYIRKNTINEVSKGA
Experimental: as §1

[7] = system: T7, Rep nickase domain of porcine circovirus 2
T7 sequence (residues 2-116 of Rep, tag left off): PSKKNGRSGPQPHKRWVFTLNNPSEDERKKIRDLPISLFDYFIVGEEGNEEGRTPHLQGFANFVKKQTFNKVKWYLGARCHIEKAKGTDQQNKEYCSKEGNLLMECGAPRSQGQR
Experimental: as §1

[8] = system: T8, Rep nickase domain of tomato golden mosaic virus
T8 sequence (residues 1-124 of Rep, tag left off): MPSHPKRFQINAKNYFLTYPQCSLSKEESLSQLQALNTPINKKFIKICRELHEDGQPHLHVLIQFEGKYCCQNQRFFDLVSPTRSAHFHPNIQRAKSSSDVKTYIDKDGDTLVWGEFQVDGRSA
Experimental: as §1

[9] = system: T9, Rep nickase domain of tomato yellow leaf curl virus
T9 sequence (residues 1-136 of Rep, tag left off): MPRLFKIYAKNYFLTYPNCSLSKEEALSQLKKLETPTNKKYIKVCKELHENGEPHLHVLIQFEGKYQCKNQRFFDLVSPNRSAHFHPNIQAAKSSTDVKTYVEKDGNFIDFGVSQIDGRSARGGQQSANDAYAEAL
Experimental: as §1

[10] = system: T10, Rep nickase domain of wheat dwarf virus
T10 sequence (residues 1-137 of Rep, tag left off): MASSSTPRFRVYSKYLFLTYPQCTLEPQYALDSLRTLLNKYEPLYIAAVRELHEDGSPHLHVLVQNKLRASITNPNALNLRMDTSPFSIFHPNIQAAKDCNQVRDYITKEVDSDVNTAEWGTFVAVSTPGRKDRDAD
Experimental: as §1

Sequence	uncleaved DNA left (log2) [1]	uncleaved DNA left (log2) [2]	uncleaved DNA left (log2) [3]	uncleaved DNA left (log2) [4]	uncleaved DNA left (log2) [5]	uncleaved DNA left (log2) [6]	uncleaved DNA left (log2) [7]	uncleaved DNA left (log2) [8]	uncleaved DNA left (log2) [9]	uncleaved DNA left (log2) [10]
CTGTTCG	-0.0255	-0.19	-0.865	0.244	0.0144	-0.988	0.0321	-0.124	-0.0639	-0.135
TAGAGGA	0.0798	0.0641	0.159	0.323	0.053	-0.118	-0.115	0.0624	-0.0476	0.0326
AGGTATC	0.00433	0.0795	0.289	0.466	0.0412	0.407	-0.0932	-0.0166	0.0918	0.0877
AGACCAT	0.226	0.282	0.774	1.21	0.152	2.02	0.232	0.124	0.285	0.285
GCCGCCC	-0.0234	-0.073	0.11	0.198	0.109	0.00246	-0.0205	-0.0423	-0.0669	-0.0395
TTGATCT	-0.0509	-0.0944	-0.00188	-1.75	-0.111	-0.555	-0.407	-0.11	0.0485	-0.0283
TTACCGT	-0.0773	-0.172	-0.508	-2.01	-0.0773	-1.06	-0.536	-0.204	-0.145	-0.139
GGTATGC	0.0223	0.0706	0.266	0.767	-0.0479	0.447	0.113	-0.0434	0.0139	0.149
TATTAGA	-1.56	-0.0802	-0.0338	-0.736	-0.0272	-1.06	-0.309	0.11	0.00473	-0.0871
TGCTCCG	0.00438	-0.119	-0.785	-0.517	-0.0272	-0.966	0.0583	-0.115	-0.0621	-0.207
CACATGT	-0.0581	-0.0348	-0.265	-0.985	-0.0533	-0.975	-0.266	-0.0537	-0.0221	-0.0723
CGACACC	-0.102	-0.084	-0.0256	0.407	-0.0657	0.555	-0.0529	-0.102	-0.125	0.00206
CCCGACG	0.0674	-0.046	-0.817	-0.831	-0.0569	-0.942	0.191	-0.0839	0.0707	-0.0399
TCGAGGA	-0.0504	-0.0589	0.018	0.257	-0.0552	-0.143	-0.169	-0.122	-0.107	-0.171
TAGTATC	0.0565	-0.242	-0.612	-1.15	-2.78	-0.168	-3.9	-0.153	0.0496	-0.0308
TAACTTT	-0.2	-0.0481	-3.89	-3.5	0.0751	-2.82	-1.81	-3.08	0.101	-3.76
ACTGGTC	-0.036	-0.128	-0.0596	0.249	-0.00291	0.205	-0.0374	-0.0179	-0.237	-0.0609
GGCGCAC	-0.108	0.131	0.547	1.35	0.011	1.78	0.196	-0.0969	0.0459	0.106
GTACGTC	0.0699	0.152	0.382	0.773	0.0463	1.3	0.03	0.0357	0.0136	0.0872
GCTCTCG	-0.104	-0.0171	-0.697	-0.336	0.0899	-0.831	0.201	0.00875	0.0141	-0.0132
AGCGCGA	0.055	-0.0472	-0.285	-0.0112	0.0182	-0.0812	0.0413	-0.018	-0.118	-0.0594
AGGAGAA	0.0954	0.0901	0.342	1.2	0.00503	1.2	0.189	0.0402	-0.00973	0.0281
TAAGGAA	0.122	0.134	0.345	1.33	0.122	1.7	0.216	0.202	0.00712	0.104
AACGTGT	0.0997	0.105	-0.143	-0.325	0.0659	-0.0481	0.109	0.0759	0.107	0.0499
ATCTCGT	0.00612	-0.153	-0.431	-0.923	0.0749	-1	-0.28	0.00345	-0.0149	-0.0133
GTGCCTG	-0.0972	-0.0603	-0.0306	0.479	-0.124	1.1	-0.0526	-0.0772	-0.165	-0.103
ACCCAGA	0.0697	0.00536	-0.124	-0.0775	0.0508	-1.03	0.0742	0.152	-0.0783	-0.0313
GATATTT	-0.117	-1.21	0.213	-1.02	0.0854	1.14	-1.76	0.0376	0.125	0.0359
ACCGTGC	-0.0135	-0.0229	-0.577	-0.176	-0.0433	-0.956	0.166	-0.0386	0.0294	-0.083
ACTTCGG	-0.0721	-0.036	-0.181	0.113	0.133	-0.496	0.168	0.126	-0.0102	-0.0842
